# The list shows a part of the results. At the low end of the ranking, values are background and their order means little.
# Target: SIX1-Q177R homeodomain (UniProt Q15475)
# Experiment: universal protein binding microarray
# Settings: Universal all-10-mer PBM (8x60K, AMADID 030236), 300 nM GST-tagged protein, Alexa Fluor 488 anti-GST; buffer, salt, pH and temperature not stated; high values mean tight binding; most listed sequences are background and not binding sites; double strand, one strand shown
row,Sequence,binding signal [E-score]
1,ACTGTGAA,-0.148
2,AACGAACG,-0.267
3,CGATACTA,0.157
4,ACATAACA,0.0873
5,AACGTTCC,-0.24
6,ACTCACTG,-0.0302
7,GCCAACAC,0.369
8,CAGTAGGC,-0.218
9,AAGCTAAC,-0.0313
10,CTTTCTCC,-0.265
11,ACTAAAAG,-0.0131
12,CCTCATCG,-0.014
13,AGCATAAC,0.0403
14,TAGCGAGA,-0.195
15,AAGCCTAC,-0.0415
16,AAACAGAA,-0.276
17,AATAGGAG,-0.0112
18,AAGAAAGG,-0.0237
19,CACTGCAA,0.109
20,CCTTAGAC,0.0476
21,AACTGCTT,-0.242
22,CGCGCGCC,-0.0976
23,ACCCTAGG,0.152
24,ACGCGAGT,0.162
25,ATAGATTA,-0.0436

row,Sequence,binding signal [E-score]
1,CTAGTATC,0.161
2,ACGCTGAA,-0.0857
3,AGCACACA,0.0361
4,GCGCGTCA,-0.1
5,ATCAACAG,-0.125
6,AAGAAGCG,-0.266
7,CAACAACG,0.0791
8,AAAAAACG,-0.209
9,TAGTAACA,0.0863
10,TATGTAGA,-0.0829
11,CCAAAAAC,0.0495
12,GCTTCTAC,-0.0105
13,CAAACAAG,-0.0843
14,ACGAAAAA,-0.00654
15,GGAGCGAA,-0.186
16,ACCTGTAC,-0.0174
17,AATAGCAA,-0.141
18,AACTTGAG,-0.173
19,CTTCCAAC,0.106
20,GGTCCACC,-0.0493
21,CTTGGTCA,-0.114
22,ATTGTTCC,-0.205
23,CACTCGCC,0.139
24,GTCGGAAA,0.0595
25,AGGTCCCA,-0.139

row,Sequence,binding signal [E-score]
1,AATCCAAA,-0.141
2,ACTGTGGA,-0.00679
3,GAATGGTC,-0.0206
4,AACATGCT,-0.176
5,CCGAGTCC,0.0012
6,ATCACAGG,-0.00754
7,CACGAACA,0.25
8,CCACACCA,0.393
9,GGCGAGAC,0.168
10,GACGTGCC,-0.165
11,ACCGAAAG,-0.0907
12,GCTCCCGA,-0.0303
13,CGGTCAAA,-0.043
14,AATGATTC,-0.259
15,ATTGATGC,-0.00877
16,ACAGGATC,-0.149
17,AGACTTAG,-0.136
18,AGGGTGGG,0.176
19,CTTTAACA,0.0423
20,GACTTAGC,-0.19
21,AATAACCC,0.0915
22,CAACTGGC,-0.156
23,ATATTCCA,-0.111
24,ATGGCATG,-0.251
25,CGTTAGCA,0.0646

row,Sequence,binding signal [E-score]
1,CGTTGAAG,-0.126
2,CTCCGCCC,0.0872
3,GGGGAACA,0.0837
4,AACGCGAT,-0.201
5,AGTGCACT,-0.0159
6,CAAGCCTG,-0.148
7,CCTCTGCG,-0.0245
8,GTAGCGTA,0.135
9,AGTAGATA,-0.104
10,AATTTCCT,-0.128
11,CGCGATGC,-0.295
12,CACAACTG,0.179
13,AACGGCGA,-0.166
14,CGTTCTCA,-0.033
15,AAACATAA,-0.165
16,GCAAGGAC,-0.123
17,TACGCCGA,0.0489
18,GACGTTCC,-0.297
19,TCGCTTAA,-0.106
20,AGGACATA,-0.114
21,CCGTCTTC,-0.116
22,ACAACTTG,-0.0779
23,CGCTGCGC,-0.165
24,CTCCCCGA,-0.0609
25,ACCAATAG,0.0812

row,Sequence,binding signal [E-score]
1,GGAACTCC,-0.0751
2,CTAGCTTC,-0.277
3,ATTACCAA,0.00112
4,ACCGTAGG,0.0409
5,ATGAGCTC,-0.131
6,ACCTTCCC,0.121
7,ATGCCGAC,0.0804
8,AGCAATAT,-0.179
9,AGCGGTGG,-0.154
10,AATCTTGC,-0.35
11,CGAAATTC,-0.0772
12,CACGTTGG,-0.00579
13,AGCCAGTA,-0.0596
14,GATGTGCA,-0.14
15,TCCCTAGA,0.0649
16,AAGAGTCT,-0.163
17,CGATAGAC,0.00308
18,ACGGAACG,0.0307
19,GCATGCGA,-0.0881
20,CCCTGAAA,0.0739
21,AAATGTAG,-0.323
22,AAACATCG,-0.161
23,AATCTTAA,-0.208
24,CCCACCGC,-0.0285
25,GTATGAAC,0.0747

row,Sequence,binding signal [E-score]
1,ACTTCTGA,-0.0426
2,GGTGCACC,0.353
3,CGGCGATA,-0.0491
4,GCTCGCAA,-0.112
5,CTTATTAC,-0.00737
6,CGATAGTC,-0.0629
7,AGAAAAAC,-0.149
8,CCAGGCGC,0.0378
9,AGTCAAGG,-0.117
10,GGCCGAAC,-0.0884
11,ACAAGCGA,-0.0817
12,AGTGGTGA,-0.0871
13,ACCGTAGC,-0.0811
14,CTACTCCC,0.228
15,AGATTGCC,-0.282
16,AGCTGAAG,-0.239
17,ACACCAGA,0.472
18,AGTCATGG,-0.0684
19,CCAGGTGC,0.128
20,AGAAGTGC,0.0438
21,CCGCGAGA,-0.113
22,CCGAAGTC,-0.0815
23,AAGGCTGG,-0.168
24,TACACCGA,0.485
25,GAGCGGCA,-0.108

row,Sequence,binding signal [E-score]
1,ATTACAGG,-0.157
2,TTATAGAA,-0.113
3,ACCCATCG,0.179
4,GGATGCTA,-0.15
5,ACGGACTC,-0.0567
6,ACCTCGGA,0.175
7,AAGGGGCG,0.0295
8,ACGGCCCT,-0.111
9,CCAGCTCA,-0.119
10,AGTGTGTC,0.283
11,ACATAAGT,-0.075
12,GAGTGTCA,0.45
13,AGTGCAAG,-0.06
14,ACACAGGA,0.192
15,TGGTGCAA,0.169
16,CTTTCCAA,-0.104
17,GAGGTCAC,-0.0638
18,AGACAACT,0.0848
19,AACACGCG,0.36
20,GTGGAACA,0.0324
21,CTGCCCCC,0.00977
22,AAGCAGGG,0.00513
23,GCCCTATA,-0.106
24,CTTTTTTC,-0.266
25,CGCGGTCC,-0.123

row,Sequence,binding signal [E-score]
1,GTAAATAA,0.0337
2,GTTGTAAA,-0.17
3,AGTCGCTA,0.109
4,CCCGCATA,0.135
5,CGGACCGA,-0.0483
6,GATGCCCC,-0.0879
7,GCCCGCTA,-0.279
8,AACTTACC,-0.0993
9,TTAGAGAA,-0.114
10,CTCTCTGC,-0.109
11,CGGTCGCA,-0.0812
12,AGTTGATA,0.024
13,AATCCGTA,-0.146
14,GTCTAGAA,-0.133
15,ACAGGCGC,-0.13
16,TAGGACGA,-0.0699
17,CAATGTAC,0.0953
18,AAGTCATA,-0.208
19,CATCCATA,-0.111
20,GAATAAAC,0.115
21,CGATGTCC,-0.182
22,CCCGCGAC,0.1
23,CGAGTCGC,0.0582
24,CGCCTACC,0.0601
25,TCACAGCA,-0.0833

row,Sequence,binding signal [E-score]
1,CTTAGATA,-0.234
2,AGGCCGCA,-0.055
3,AATAAAAA,-0.0602
4,ATTGATTG,-0.0291
5,ACTCGACT,0.131
6,GTTATCAA,-0.11
7,CTGTAAAG,-0.11
8,AGCGGGTG,0.333
9,CCCATCTA,-0.14
10,ACAGCGAC,0.109
11,GGTGAACA,0.106
12,CATGAGGA,-0.111
13,CAGCGATA,-0.00628
14,ACGGTAAC,0.108
15,CACAGTGG,0.16
16,CATGGAAG,-0.108
17,AAGCGGGA,-0.176
18,GAAATAGC,-0.203
19,AACGAGTT,-0.107

# Source: paper PMC10668032
